# In all, about 48,000 compounds went through this assay and about 1,200 (2.5%) were called active. About 2% were inconclusive and are not listed.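 Rule for the calls: active = activation of at least 60% and not above a set upper limit (about 1 call in 100 departs from these limits); inconclusive = activation of 40% to 60%, or above that upper limit; inactive = activation under 40%.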 The list shows a part of the results.
# Target: Probable G-protein coupled receptor 32 (Homo sapiens) (UniProt O75388)
# UniProt O75388, sequence (O75388 whole entry, looked up): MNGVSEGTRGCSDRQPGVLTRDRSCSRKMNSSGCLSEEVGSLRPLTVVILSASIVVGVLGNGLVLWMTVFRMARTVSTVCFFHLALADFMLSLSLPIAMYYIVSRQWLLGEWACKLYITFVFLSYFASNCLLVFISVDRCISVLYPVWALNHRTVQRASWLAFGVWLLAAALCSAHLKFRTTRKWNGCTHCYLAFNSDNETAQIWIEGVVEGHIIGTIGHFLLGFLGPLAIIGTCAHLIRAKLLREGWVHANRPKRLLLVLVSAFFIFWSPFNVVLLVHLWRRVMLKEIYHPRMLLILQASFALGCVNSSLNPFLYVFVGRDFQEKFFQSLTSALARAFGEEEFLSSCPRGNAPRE
# Experiment: qHTS for Agonists of Human Resolvin D1 Receptor DRV1; note: 0% is about no effect
# Conditions: CHO-K1 GPR32 beta-arrestin PathHunter luminescence, 90 min; at 76.9 µM; stronger effect = higher value; zero percent set by DMSO-only wells
# Outline: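 CHO-K1 cells stably expressing ProLink-tagged GPR32 and Enzyme Activator-tagged beta-arrestin were seeded at 2,500 cells/well overnight, exposed to compounds for 90 min at 37 °C, then read by beta-Gal complementation chemiluminescence after 1 h detection reagent.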
row,SMILES,activation
1,COc1ccc(N(CC(=O)Nc2cc(C)ccc2C)S(=O)(=O)c2ccc(OC)c(OC)c2)cc1,inactive: -1.46%
2,Cn1c(=O)c2c(nc(Oc3ccccc3)n2Cc2c(Cl)cccc2Cl)n(C)c1=O,inactive: 0.241%
3,COCCCNC(=O)CSc1nc2cc3c(cc2c(=O)n1CCCC(=O)NCc1ccc(OC)cc1)OCO3,inactive: -14.4%
4,CCOc1ccc(NC(=O)CN2C(=O)COc3ccc(S(=O)(=O)NC4CCCC4)cc32)cc1,inactive: 1.42%
5,COc1cc(NC(=O)CSc2nc3nc(C)c(Cc4ccc(C)cc4)c(C)n3n2)cc(OC)c1OC,inactive: 11.4%
6,O=C(Nc1ccc(F)cc1F)c1ccc2c(O)c(S(=O)(=O)c3ccc(Cl)cc3)c(=O)[nH]c2c1,inactive: 2.07%
7,CCc1ccc(C2c3c(oc4ccc(F)cc4c3=O)C(=O)N2c2nc(C)c(C(=O)OC)s2)cc1 (configuration not stated),inactive: -10.1%
8,O=C(Nc1c(C(=O)O)oc2ccccc12)c1ccc(C(F)(F)F)cc1,inactive: -18.4%
9,O=C(COCc1cc(-c2ccc3c(c2)OCO3)on1)NCc1ccccc1Cl,inactive: -17.9%
10,O=C(CSc1cn(CC(=O)N2CCOCC2)c2ccccc12)Nc1ccccc1,inactive: -5.99%
11,CCOc1ccc(C(=O)Nc2ccc(S(=O)(=O)Nc3nc(C)cc(C)n3)cc2)cc1OC,inactive: -4.88%
12,COc1ccccc1OCC(=O)NCc1nc(-c2ccc(Cl)cc2)no1,inactive: -14.2%
13,NC(=O)c1ccc2[nH]ccc2c1,inactive: -5.19%
14,O=C(COc1ccccc1)Nc1ccccc1OCc1cc(=O)n2ccccc2n1,inactive: -4.64%
15,Cc1ccccc1Cc1c(C)nc2nc(SCC(=O)NCCc3ccc(Cl)cc3)nn2c1C,inactive: -1.53%
16,CC1=C(c2ccc(C)c(C)c2)S(=O)(=O)N(Cc2ccc(C(=O)NC(C)c3ccccc3)cc2)C1=O (configuration not stated),inactive: -0.735%
17,Cc1ccc(C)c(OCC(=O)Nc2ccc(S(=O)(=O)Nc3onc(C)c3C)cc2)c1C,inactive: 13.1%
18,CCC(C(=O)Nc1ccccc1OC)n1nc(C)c2sc3ccccc3c2c1=O (configuration not stated),inactive: -15.8%
19,CCCc1c(-c2ccc(O)cc2)nn(-c2ccc(O)cc2)c1-c1ccc(O)cc1,inactive: 5.36%
20,CC(Sc1cn(CCNC(=O)c2ccccc2F)c2ccccc12)c1ccccc1 (configuration not stated),inactive: 15.2%
21,Cc1ccc(NC(=O)c2c(C)oc3nc(C)nc(N4CCCC4)c23)c(C)c1,inactive: -18.8%
22,CCN(CCCNC(=O)CSc1cc(=O)n(CC)c2ccccc12)c1cccc(C)c1,active: 74.8%
23,Cc1ccc2c(=O)c(C(=O)c3ccc(Cl)cc3)cn(CC(=O)NC3CCCCC3)c2n1,inactive: 9.03%
24,CCOc1ccc(CCNC(=O)c2ccc(CS(=O)Cc3cccc(Cl)c3)o2)cc1 (configuration not stated),inactive: -19.7%
25,COc1ccc(C)cc1NC(=O)Cn1c(=O)ccc2cc(S(=O)(=O)N3CCC(C)CC3)ccc21,inactive: -17.1%
26,COC(=O)c1ccc(NC(=O)CSc2ncc3c(n2)-c2cc(Cl)ccc2N(Cc2ccccc2)S3(=O)=O)cc1,inactive: 7.48%

row,SMILES,activation
1,COc1ccc(NC(=O)c2c(NCc3sccc3C)sc3c2CCCCC3)c(OC)c1,inactive: -1.91%
2,O=S(=O)(c1ccc(F)cc1)N(Cc1nc(-c2ccc(Cl)cc2)no1)C1CCCCC1,inactive: -8.65%
3,O=C(CCS(=O)(=O)c1cc(Br)cc2c1N(C(=O)C1CC1)CC2)NCc1ccccc1Cl,inactive: -2.93%
4,Cc1c(NC(=O)c2cccc3c(Cl)cccc23)cccc1-c1nc2ccccc2o1,inactive: 6.93%
5,COc1ccc(Br)cc1C(=O)Nc1ccc(-c2nc3cc(Cl)ccc3o2)cc1,inactive: -3.73%
6,CCC(C(=O)Nc1cc(F)ccc1F)n1nc(-c2cc(C)ccc2C)ccc1=O (configuration not stated),inactive: 0%
7,CCOC(=O)N1CCc2c(sc3c2c(=O)n(Cc2ccccc2)c(=O)n3CC(=O)Nc2ccc(C)c(C)c2)C1,inactive: -6.15%
8,Cc1ccc(NC(=O)CCC(=O)N2CCSc3ccccc32)cc1Cl,inactive: 12.5%
9,COC(=O)C(C)n1nnc2sc(-c3ccccc3)cc2c1=O (configuration not stated),inactive: 34.9%
10,COc1ccc2c(c1)c(=O)c(S(=O)(=O)c1ccc(C)cc1)cn2Cc1ccccc1C,inactive: 18%
11,COC(=O)c1sccc1S(=O)(=O)N(CC(=O)Nc1c(C)cccc1C)c1ccc(C)c(C)c1,inactive: -13.7%
12,Cc1c(N(C)C)c(=O)n(-c2ccccc2)n1C,inactive: -24.5%
13,Cc1c(Cl)cccc1NC(=O)Nc1nnc(N(C)Cc2ccccc2)s1,inactive: -10.1%
14,CC(=O)c1ccc(NC(=O)Cn2cc(S(=O)(=O)Cc3ccccc3Cl)c3ccccc32)cc1,inactive: -14.3%
15,Cc1c(NC(=O)C(C)(C)Oc2ccc(Cl)cc2)cccc1-c1nc2ncccc2o1,inactive: 20.6%
16,CC1=C(C(=O)NCc2ccccc2C)C2(CCCCC2)OC1=O,inactive: -5.31%
17,O=C(NCCCc1ccccc1)C1CCN(C(=O)N2CCOc3ccc(Cl)cc32)CC1,inactive: 5.95%
18,CCOc1ccccc1NC(=O)CCn1nc(C)c(S(=O)(=O)N2CCCCC2)c1C,inactive: -23.7%
19,COc1ccc(C2C=C(c3ccccc3)Nc3nc(NC(=O)/C=C/c4ccccc4)nn32)cc1 (configuration not stated),inactive: -25.2%
20,Cn1ccc2c(OCC(=O)Nc3cc(C(F)(F)F)ccc3Cl)cccc2c1=O,inactive: 10.5%
21,CCN(CC)S(=O)(=O)c1ccc2c(c1)c(=O)c(C(=O)N1CCN(c3ccc(F)cc3)CC1)cn2C,inactive: -7.41%
22,COC(=O)CCN(c1ccccc1)S(=O)(=O)c1cc(-c2cc(C)no2)ccc1OC,inactive: -23%
23,CCN1CCSc2ccc(C(=O)NCc3ccc(OC)cc3)cc21,inactive: -18.8%
24,CCc1ccc(NC(=O)CSC2=Nc3ccccc3C3=NC(CC(=O)NCc4ccccc4)C(=O)N23)cc1 (configuration not stated),inactive: -14%
25,O=C(Cn1ncc2c3ccccc3n(Cc3cccc(Cl)c3)c2c1=O)NC1CCCCCC1,inactive: -8.91%
26,CC(=O)N1CCc2cc(S(=O)(=O)CCC(=O)NCc3ccc(Cl)cc3)ccc21,inactive: 23.5%

# — PubChem BioAssay AID1346428 (National Center for Advancing Translational Sciences (NCATS), 2018)
